Among all 150,000 compounds or so, about 540 (0.36%) showed an effect of 50% or more. Some of the results follow.
Test system: Plasmodium falciparum
Experiment: Primary screen in NF54 nanoGlo assay, in single point, at 2uM, 72h; a lower Z score goes with more inhibition
Type: functional, Erythrocyte
Conditions: timepoint 72 hour

**Q.** Which results are given for `O=c1[nH]c2ccccc2c(-c2ccccc2)c1Oc1cccc(F)c1`?
**A.** % Inhibition: -16%; Z score: 1.36

**Q.** What does the source list for `O=C(Nc1cccc(Cl)c1)Nc1nnc2cccc(Cl)n12`?
**A.** % Inhibition: -18%; Z score: 2.03

**Q.** `Cc1cc(N)n(CC(=O)NCc2cc(COc3ccccc3)cs2)n1` was tested. Which “% Inhibition” value did it give?
**A.** 2%

**Q.** What about the Z score of the same compound?
**A.** -0.3

**Q.** With `Cc1noc(C)c1CN1C(=O)[C@@H]2CC[C@H]1CN(C(=O)CCC(=O)N(C)C)C2` as the compound, how does the “% Inhibition” value read?
**A.** -2%

**Q.** And the Z score?
**A.** 0.29

**Q.** For `N#Cc1ccnc(O[C@H]2CCN(C(=O)CN3CCN(c4ccccc4)C3=O)C2)c1`, which “% Inhibition” value is on record?
**A.** -16%

**Q.** What about the Z score of the same compound?
**A.** 3.13

**Q.** With `O=C([C@@H]1CCC(=O)N1S(=O)(=O)c1ccccc1)N1CCN(Cc2ccccc2)CC1` as the compound, how does the “% Inhibition” value read?
**A.** -15%

**Q.** And the Z score?
**A.** 2.1

**Q.** Which “% Inhibition” value does the source give for `CC[C@@H](CO)NCc1ccc(OCc2ccccc2)c(OCc2ccccc2)c1` here?
**A.** 4%

**Q.** What about the Z score of the same compound?
**A.** -0.53

**Q.** How did the “% Inhibition” value turn out when `CC1(C)C(c2ccccc2)=NC(c2ccc(F)cc2)=[N+]1[O-]` was run?
**A.** -8%

**Q.** And the Z score?
**A.** 1.57

**Q.** `CCN(C(=O)Nc1nnc(-c2cc3ccccc3o2)s1)C1CC1` was tested. Which “% Inhibition” value did it give?
**A.** -9%

**Q.** What about the Z score of the same compound?
**A.** 1.46

**Q.** What does the source list for `Cc1nnc(C(C)NC2CCC[C@@H]3C[C@H]23)[nH]1` (stereo not given in full)?
**A.** % Inhibition: -10%; Z score: 1.36

**Q.** What does the source list for `Cc1nnc(CCNC(=O)CNC(=O)N(C)C)s1`?
**A.** % Inhibition: 1%; Z score: -0.08

**Q.** `Cc1noc(C2CN(C(=O)c3ccnc(-c4ccco4)c3)C2)n1` was tested. Which “% Inhibition” value did it give?
**A.** -15%

**Q.** And the Z score?
**A.** 1.92

**Q.** `CCCn1cc(CN(C)[C@H]2CCN(S(C)(=O)=O)C2)cn1` was tested. Which “% Inhibition” value did it give?
**A.** -10%

**Q.** What about the Z score of the same compound?
**A.** 1.17

**Q.** With `Cc1ncn(Cc2ccncc2F)c1C` as the compound, how does the “% Inhibition” value read?
**A.** 4%

**Q.** What about the Z score of the same compound?
**A.** -0.48

**Q.** Which results are given for `CCOCc1ccccc1CNC(=O)N[C@@H](C)CC`?
**A.** % Inhibition: -11%; Z score: 1.07

**Q.** What does the source list for `CC(=O)c1ccc(NC(=O)c2cnc(-c3ccc4c(c3)CCO4)s2)cc1`?
**A.** % Inhibition: 31%; Z score: -4.06

**Q.** How did the “% Inhibition” value turn out when `CCc1ccsc1CNC(=O)CN(C)C(C)C` was run?
**A.** -7%

**Q.** What about the Z score of the same compound?
**A.** 1

**Q.** Which results are given for `O=C(Nc1c(C(=O)c2ccccc2)oc2ccccc12)c1cc(-c2ccccc2)on1`?
**A.** % Inhibition: -4%; Z score: 0.62

**Q.** Which results are given for `CCN1CCN(CCCNC(=O)CCCc2nnc(C(=O)Nc3cccc(F)c3)s2)CC1`?
**A.** % Inhibition: -6%; Z score: 1.04

**Q.** With `Cn1cc(C(=O)N2CCC[C@H]2C(F)(F)F)nn1` as the compound, how does the “% Inhibition” value read?
**A.** -4%

**Q.** What about the Z score of the same compound?
**A.** 0.71

**Q.** `CNC(=O)[C@@H]1CN(C(=O)Cc2c[nH]c3ccccc23)C[C@H]1c1nc(COC)no1` was tested. Which “% Inhibition” value did it give?
**A.** 1%

**Q.** And the Z score?
**A.** -0.1

**Q.** What does the source list for `Cn1cc(CCC(=O)N2CCCCc3cc(Cl)ccc32)cn1`?
**A.** % Inhibition: -17%; Z score: 2.15

**Q.** With `CC1=C(C(=O)N2CCN(c3cccc(Cl)c3)CC2)OCCO1` as the compound, how does the “% Inhibition” value read?
**A.** 12%

**Q.** What about the Z score of the same compound?
**A.** -1.64

**Q.** With `C#CCN(C(=O)C[C@H]1C(=O)NCCN1Cc1cccnc1)C1CCCCC1` as the compound, how does the “% Inhibition” value read?
**A.** -15%

**Q.** And the Z score?
**A.** 2.16

**Q.** What does the source list for `CCc1nc(Cn2ccnc2-c2ccc3ccccc3n2)no1`?
**A.** % Inhibition: -7%; Z score: 0.69

**Q.** `CCCOc1ccccc1CN1CCN(C)[C@]2(CCC(=O)N(C)CC2)C1` was tested. Which “% Inhibition” value did it give?
**A.** -30%

**Q.** And the Z score?
**A.** 2.69

**Q.** `COc1cc(-c2ccc(C(=O)NC(C)(C)CO)cc2)nc(N)n1` was tested. Which “% Inhibition” value did it give?
**A.** -25%

**Q.** What about the Z score of the same compound?
**A.** 2.52

**Q.** How did the “% Inhibition” value turn out when `O=C(c1[nH]nc(C2CC2)c1Br)N1CCOCC1` was run?
**A.** -7%

**Q.** And the Z score?
**A.** 0.91

**Q.** What does the source list for `CN(C(=O)CN1C[C@H]2CN(C3CCCCC3)C[C@@]2(C(=O)O)C1)c1ccccc1`?
**A.** % Inhibition: 7%; Z score: -0.89

**Q.** Which results are given for `O=C(N[C@H]1CCc2n[nH]c(=O)cc2C1)c1ccc2nsnc2c1`?
**A.** % Inhibition: -7%; Z score: 1.17

**Q.** For `COCC1(CN2C(=O)CNC2=O)CCCC1`, which “% Inhibition” value is on record?
**A.** 2%

**Q.** What about the Z score of the same compound?
**A.** -0.46

**Q.** For `Cn1ncc2[nH]c(C(C)(C)CN3CCOCC3)nc21`, which “% Inhibition” value is on record?
**A.** -1%

**Q.** And the Z score?
**A.** 0.07

**Q.** Which “% Inhibition” value does the source give for `CS(=O)(=O)[C@H]1CCN(C(=O)c2ccc(F)c3occc23)C1` here?
**A.** -3%

**Q.** And the Z score?
**A.** 0.46

**Q.** Which “% Inhibition” value does the source give for `CC(C)N1CCC(N2CCN(Cc3cc4ccccc4[nH]3)C[C@@H]2CCO)CC1` here?
**A.** 1%

**Q.** And the Z score?
**A.** -0.13

**Q.** What does the source list for `CO[C@@H](C)CNC(=O)Cc1c2c(n(CCc3ccccc3)c1C)CCCC2=O`?
**A.** % Inhibition: -7%; Z score: 0.89

**Q.** What does the source list for `C[C@H](NCC(C)(C)c1cccc(F)c1)C1(S(C)(=O)=O)CC1`?
**A.** % Inhibition: 1%; Z score: -0.2

**Q.** Which results are given for `CC(=O)Nc1snnc1C(=O)NC1CCCCC1`?
**A.** % Inhibition: 27%; Z score: -3.11

**Q.** Which results are given for `C[C@H](NC(=O)c1ncccc1O)C1=CCCCC1`?
**A.** % Inhibition: -12%; Z score: 1.14

**Q.** Which “% Inhibition” value does the source give for `CCOc1ccc2nc(-n3nc(C)c4c3NC(=O)C[C@@H]4c3ccc(OC)c(OC)c3)sc2c1` here?
**A.** -9%

**Q.** And the Z score?
**A.** 1.4

**Q.** What does the source list for `CC(=O)Nc1cccc(OS(=O)(=O)N(C)C)c1`?
**A.** % Inhibition: -3%; Z score: 0.53

**Q.** What does the source list for `O=C1CCCCN1CCCC(=O)N1CCC(F)CC1`?
**A.** % Inhibition: 2%; Z score: -0.35

**Q.** How did the “% Inhibition” value turn out when `CN=C(N)Nc1ccc(OC(F)(F)F)cc1` was run?
**A.** -5%

**Q.** What about the Z score of the same compound?
**A.** 0.65

**Q.** With `O=S(=O)(c1ccc(F)c(Cl)c1)N1CC(Nc2cccnn2)C1` as the compound, how does the “% Inhibition” value read?
**A.** -13%

**Q.** What about the Z score of the same compound?
**A.** 1.53

**Q.** With `COCCC1(NC(=O)NC2CCCCC2)CCN(S(C)(=O)=O)CC1` as the compound, how does the “% Inhibition” value read?
**A.** 3%

**Q.** What about the Z score of the same compound?
**A.** -0.41

**Q.** How did the “% Inhibition” value turn out when `O=C(c1ccc(Cl)s1)N1CC(Cn2cncn2)C1` was run?
**A.** -24%

**Q.** And the Z score?
**A.** 3.09

**Q.** How did the “% Inhibition” value turn out when `O[C@@]1(CNCCC(c2ccccc2)c2ccccc2)CNCCOC1` was run?
**A.** 12%

**Q.** What about the Z score of the same compound?
**A.** -1.7

**Q.** Which results are given for `COc1ccc(-n2nc(C(=O)N3CCN(C)CC3)c(=O)n(Cc3cccc(C(F)(F)F)c3)c2=O)cc1OC`?
**A.** % Inhibition: -2%; Z score: 0.34

**Q.** How did the “% Inhibition” value turn out when `CC1(NCc2cc(Cl)cs2)COC1` was run?
**A.** -1%

**Q.** What about the Z score of the same compound?
**A.** 0.16

**Q.** What does the source list for `Cc1nc(CS(=O)(=O)[C@@H](C)C(=O)Nc2ccccc2)no1`?
**A.** % Inhibition: -10%; Z score: 1.92

**Q.** `O=C(CCn1nc2ccccn2c1=O)Nc1c(O)cccc1F` was tested. Which “% Inhibition” value did it give?
**A.** -10%

**Q.** And the Z score?
**A.** 1.53

**Q.** `c1ccc(-c2nnc3n2C[C@@H](NCc2cccnc2)CC3)cc1` was tested. Which “% Inhibition” value did it give?
**A.** -16%

**Q.** What about the Z score of the same compound?
**A.** 1.44

**Q.** With `CO[C@H]1CCCN(C2CCN(c3ccccc3Cl)CC2)C1` as the compound, how does the “% Inhibition” value read?
**A.** -2%

**Q.** And the Z score?
**A.** 0.45

**Q.** Which “% Inhibition” value does the source give for `COc1ccccc1N1CCN(C(=O)[C@@H]2CCN2S(=O)(=O)c2ccccc2)CC1` here?
**A.** 4%

**Q.** And the Z score?
**A.** -0.58

**Q.** Which results are given for `CCN1C[C@@H](C(=O)N2CCN(c3nc(C)cc(C)n3)CC2)CCC1=O`?
**A.** % Inhibition: -6%; Z score: 0.65

**Q.** Which “% Inhibition” value does the source give for `COCCN1C[C@@H](CNC(=O)CC(=O)Nc2cccc(Cl)c2C)CC1=O` here?
**A.** 0%

**Q.** And the Z score?
**A.** -0.04

Reference: ChEMBL document CHEMBL4888484, “Replenishing the malaria drug discovery pipeline: Screening and hit evaluation of the MMV Hit Generation Library 1 (HGL1) against asexual blood stage Plasmodium falciparum ,using a nano luciferase reporter read-out” (2022)
